The text below walks through data of PubChem BioAssay AID1347073 (National Center for Advancing Translational Sciences (NCATS), 2019).

The structures appear in SMILES notation. Among all 45,000 compounds or so, about 200 (0.44%) were called active. Another 7% or so got no clear call; they are omitted. The call rests on the fitted dose curve; in most records, active means well fitted activation curve with a large enough effect; inconclusive means small, poorly fitted or top-dose-only effect; inactive means no such curve, though single readings can be large or run the other way. Some of the results follow.

This test in a line: qHTS of TDP-43 Inhibitors: NCGC Sytravon Library Screen. Further: 0% is about no effect; nearly all actives have a fitted effect of over 55% in size. To be noted: yeast TDP-43 toxicity rescue, BacTiter-Glo growth, 24 h; series mostly up to 46.1 µM; growth rescue (activation): at the top concentration. The method, boiled down: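 TDP-43-expressing yeast, pregrown in raffinose, seeded at OD600 0.02 in galactose medium with compound for 24 hr at 30 deg C. Growth read by BacTiter-Glo luminescence, so rescue of toxicity appears as activation.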
With `CCC(=O)NC(=S)Nc1cccc(NC(=O)c2ccccc2C)c1`, the “growth rescue (activation)” value is inactive: 7.36%. The same measure for `CCCCCNS(=O)(=O)c1cc(C)ccc1OC`: inactive: 23%; for `O=C(C(=O)N1CCN(c2ccc(F)cc2)CC1)N1CCCCC1`: inactive: -13.3%; for `COc1ccc(NC(=O)CCCc2c[nH]c3ccccc23)cc1OC`: inactive: -2.96%. Regarding `COc1cc(/C=C/C(=O)OCC(=O)c2c(N)n(C)c(=O)n(C)c2=O)ccc1O`, the “growth rescue (activation)” value was inactive: 2.45%. With `CCOc1ccccc1OCCCC(=O)NCCc1ccc(S(N)(=O)=O)cc1` the figure was inactive: -2.82%; with `O=[N+]([O-])c1ccc(C(O)CN2CCN(C/C=C/c3ccccc3)CC2)cc1` (stereo not drawn), inactive: 12.9%; with `Cc1ccc(S(=O)(=O)N2CCOCC2)cc1NC(=O)COC(=O)Cc1ccsc1`, inactive: -7.2%. With `Cc1ccccc1C1N(c2nccs2)C(=O)C2CCCN21` (stereo not drawn) the figure was inactive: 0.416%; with `O=C(NC1CCCCC1)C12CC3CC(CC(Cl)(C3)C1)C2`, inactive: 18.4%.

As to `c1ccc(Cc2nnc(N3CCOCC3)c3ccccc23)cc1`, the “growth rescue (activation)” value is inactive: 12.3%. Consider `CN=C1NN=C(c2cc(C)n(-c3ccc(Cl)cc3)c2C)CS1`, for which the “growth rescue (activation)” value is inactive: 8.22%.

In the case of `CCn1nc(C)cc1C(=O)N(C)C1CCCN(Cc2ccccc2F)C1` (stereo not drawn), the “growth rescue (activation)” value is inactive: 6%.

With `NS(=O)(=O)c1ccc(NC(=O)COC(=O)C2CC2)cc1`, the “growth rescue (activation)” value was inactive: 8.56%.

Take `O=C(CC1CCOCC1)Nc1ccc(Cl)c(Cl)c1`: the “growth rescue (activation)” value is inactive: 4.39%. With `Cc1cc(C)cc(NC(=O)CCn2ccnc2)c1` the figure was inactive: 9.8%; with `CCOC(=O)c1ccccc1N1C(=O)C2Sc3[nH]c(=O)sc3C(/C=C/c3ccccc3)C2C1=O` (stereo not drawn), inactive: 16.1%; with `O=[N+]([O-])c1cc(C(F)(F)F)cc([N+](=O)[O-])c1NCc1cccnc1`, inactive: 6.38%.

For the compound `COc1ccc2oc(=O)c(-c3csc(Nc4ccc(O)cc4)n3)cc2c1`, the “growth rescue (activation)” value was inactive: -18.9%. With `CC(C)[C@H](NC(=O)c1ccco1)C(=O)NCc1ccccc1`, the “growth rescue (activation)” value is inactive: -8.98%.

Regarding `O=C(CCC1CCCCC1)Nc1cccc(C(=O)Nc2ccc(C(=O)O)cc2)c1`, the “growth rescue (activation)” value was inactive: -9.63%. With `Cc1csc(NC(=O)C2CCCN2C(=O)OCC(C)C)n1` (stereo not drawn) the figure was inactive: 7.46%; with `Cc1nc2ccccc2c2c1C(=O)N(c1ccc(C(=O)O)cc1)C2=O`, inactive: -8.46%. With `O=C(NCc1cccnc1)c1ccc2c(c1)N(Cc1ccccc1)CCS2` the figure was inactive: 12.4%. With `COc1cc(C(O)c2nc(-c3cccc4cccnc34)cs2)ccc1F` (stereo not drawn) the figure was inactive: 14.7%; with `Cc1occc1C(=O)NNS(=O)(=O)c1ccc([N+](=O)[O-])cc1`, inactive: 14%. As for `CCCn1c(SCC(=O)Nc2ccc3c(c2)OCO3)n[nH]c1=O`, the “growth rescue (activation)” value is inactive: 2.43%. The same measure for `O=C(NC1CCCCC1)C1CCCN(S(=O)(=O)c2ccc(Br)s2)C1` (stereo not drawn): inactive: 3.94%. For `COc1ccc(/C=C/C=C2\NC(=S)NC2=O)cc1`, the “growth rescue (activation)” value is inactive: 4.48%.

As for `COc1ccc(CN2CN(S(=O)(=O)c3cccs3)c3nc4ccccc4nc32)cc1`, the “growth rescue (activation)” value is inactive: 7.87%. With `CCc1nnc(NC(=O)CSc2nc(-c3ccccc3)c(-c3ccccc3)o2)s1` the figure was inactive: 11.9%; with `Cc1ccc(Cl)cc1S(=O)(=O)N1CCC(C(=O)NC2CCN(Cc3ccccc3)CC2)CC1`, inactive: 5.56%.

For the compound `COc1cc(C(=O)NCC(=O)Nc2c(C)cccc2C)ccc1OCC(=O)N1CCOCC1`, the “growth rescue (activation)” value is inactive: 4.43%. With `COc1ccc2nc(C)cc(N3CCN(c4ccccc4)CC3)c2c1` the figure was inactive: 3.77%.

Regarding `O=C(NCc1ccco1)C1Cc2c(-c3cccc(F)c3)ccnc2O1` (stereo not drawn), the “growth rescue (activation)” value is inactive: 23.2%. As for `CCCCC(=O)N(C)c1c(CC)nc2c(OCC(=O)c3ccc(Cl)cc3Cl)cccn12`, the “growth rescue (activation)” value was inactive: -5.95%. In the case of `CN(C)c1ccc(C=C2C(=O)OC3(CCCC3)OC2=O)cc1`, the “growth rescue (activation)” value is inactive: -9.93%. As to `COc1cc(/C=N/NC(=O)CCN2CCN(C(c3ccccc3)c3ccccc3)CC2)ccc1O`, the “growth rescue (activation)” value is inactive: -10.3%. With `O=C(CCCNC(=O)c1ccc(Cl)cc1)Nc1nccs1` the figure was inactive: 2.5%; with `COc1cccc(CC(NC(C)=O)C(=O)NC2CCN(C(=O)c3ccc(Cl)cc3)CC2)c1` (stereo not drawn), inactive: 5.51%; with `Cc1ccc(CNc2nc(-c3cccnc3)nc3ccccc23)cc1`, inactive: 3.63%. The same measure for `CC(C)(C)c1ccc(Cn2nnc3c(=O)[nH]c(C4CCCN(C(=O)c5cccs5)C4)nc32)cc1` (stereo not drawn): inactive: -0.362%; for `CC(=O)c1ccc(Nc2cc(C)nc3c(C)cc(C)cc23)cc1`: inactive: 19.9%. With `COc1ccc(O)c(/C=N/NC(=O)c2ccc(CSc3nc(C)cc(C)n3)cc2)c1` the figure was inactive: 8.49%; with `CCn1c(SCC(=O)N2CCCCCC2)nc2ccccc2c1=O`, inactive: -1.62%; with `Cc1noc(C)c1C(=O)N1CCCC(C(=O)c2cccc(OC(C)C)c2)C1` (stereo not drawn), inactive: 3.52%. As to `CCc1cc2cccc(C)c2nc1SCC(=O)Nc1cc(C)on1`, the “growth rescue (activation)” value is inactive: 16.6%.

`CCn1cc(C(=O)N2CCCc3ccccc32)c2cc(OC)c(OC)cc2c1=O`: the “growth rescue (activation)” value was inactive: 24.5%.

With `CCOC(=O)c1c(CSCc2ccccc2)oc2ccc(O)c(CN(C)C)c12`, the “growth rescue (activation)” value is inactive: 2.62%. `CCOc1ccc(C(C)C)cc1S(=O)(=O)n1ccnc1C`: the “growth rescue (activation)” value was inactive: 0.573%. With `CC(C)(Oc1ccc(Cl)cc1)C(=O)N1CCN(c2ccccn2)CC1` the figure was inactive: 25.4%; with `COc1cccc(/C(C)=N/NS(=O)(=O)c2ccc(Cl)cc2)c1`, inactive: 5.12%; with `CCOc1ccccc1NC(=O)CCCNC(=O)Cn1cnc2sc(C)c(C)c2c1=O`, inactive: -14.8%. With `CC1CN(Cc2csc(-c3ccc(Cl)cc3)n2)CC(C)O1` (stereo not drawn) the figure was inactive: 3.09%. Regarding `CN(C)S(=O)(=O)c1cccc(NC(=O)CSc2nncn2C)c1`, the “growth rescue (activation)” value is inactive: 4.49%. The same measure for `COc1cccc(/C=N/Nc2nc3ccccc3n3cnnc23)c1`: inactive: -5.37%; for `Cn1nc(C(C)(C)C)c([N+](=O)[O-])c1C(N)=O`: inactive: 4.11%. With `CN(CCCNC(=O)CSc1cc(=O)n(C)c2cc(Cl)ccc12)Cc1ccccc1` the figure was inactive: 5.09%; with `CC(NC(=O)c1ccccc1NC(=O)CN1CCc2ccccc2C1)c1ccccc1` (stereo not drawn), inactive: 18.1%. With `CCN(CC)C(=O)c1ccc2nc([C@@H]3O[C@H](CO)[C@H](O)[C@H](O)[C@H]3O)[nH]c2c1` the figure was inactive: -5.43%. As for `CCc1nc2c(OCCOc3ccccc3)cccn2c1N(C)C(=O)c1ccccc1F`, the “growth rescue (activation)” value is inactive: 6.11%. With `CCCCNC1=CC(=O)C(=O)c2ccccc21` the figure was inactive: 9.09%; with `COc1ccc(Cl)cc1C(=O)NNC(=S)NC1CCCC1`, inactive: 25.9%.

In the case of `O=c1c2[nH]c3ccccc3c2nc2n1CCCS2`, the “growth rescue (activation)” value is inactive: 0.881%.

Consider `Cc1cnc(NC(=O)c2ccc3ncsc3c2)s1`, for which the “growth rescue (activation)” value was inactive: -4.72%.

As for `COc1ccc(CN2C[C@@H](CO)O[C@@H](n3cnc4c(N5CCOCC5)ncnc43)C2)cc1`, the “growth rescue (activation)” value was inactive: -8.18%.

With `COc1ccc(N2CC(C(=O)OCC(=O)Nc3cc(C)on3)CC2=O)cc1` (stereo not drawn), the “growth rescue (activation)” value is inactive: 0.974%.

`COC(=O)NCC(C)OC(=O)Nc1ccc(Cl)cc1` (stereo not drawn): the “growth rescue (activation)” value was inactive: -15%. Consider `Cc1ccc(C(=O)NCC2CCCO2)cc1[N+](=O)[O-]` (stereo not drawn), for which the “growth rescue (activation)” value was inactive: -8.24%. With `CCc1cccc(NC(=O)C2CCCN(S(=O)(=O)c3cccs3)C2)c1` (stereo not drawn) the figure was inactive: 17.3%; with `COc1ccc(N(CC(=O)NN=C2CCN(C)CC2)S(=O)(=O)c2ccccc2)c(OC)c1`, inactive: 13.2%. The same measure for `CN(C)CCNC(=O)Nc1ccc(F)cc1F`: inactive: -4%; for `CCN(CC(=O)NCc1ccc(F)cc1)Cc1nc2cc(Cl)ccc2c(=O)[nH]1`: inactive: -0.0853%. With `Cc1ccc(N(CC(=O)NC2CCCCC2)C(=O)CCCC(=O)Nc2ccccn2)cc1` the figure was inactive: 3.44%. In the case of `Cc1ccc(S(=O)(=O)NCCC(=O)Nc2cccc(S(N)(=O)=O)c2)cc1C`, the “growth rescue (activation)” value was inactive: -4.48%. The same measure for `Cc1ccc(NC(=O)C2CCCN2C(=O)NC2CCCCC2)cc1F` (stereo not drawn): inactive: 3.85%; for `O=C(Cc1cc(=O)[nH][nH]1)N/N=C/c1cccc(Cl)c1Cl`: inactive: 17.1%; for `C=CC[n+]1c(-c2ccccc2)csc1NC(C)(C)C`: inactive: -23.4%. With `CCOc1ccccc1N1CCN(C(=O)c2cccc(-c3ccc(O)cc3)c2)CC1` the figure was inactive: -72.8%.

Regarding `COc1cccc(NC(=O)C2CCC(CNS(=O)(=O)c3cccs3)CC2)c1` (stereo not drawn), the “growth rescue (activation)” value is inactive: -9.99%. As for `O=C(O)CCCCCn1c(SCc2cc(=O)n3cc(Cl)ccc3n2)nc2ccsc2c1=O`, the “growth rescue (activation)” value was inactive: 14.2%. The same measure for `O=C(/C=C/c1cccc(Br)c1)N1CCN(c2cccc(C(F)(F)F)c2)CC1`: inactive: 15.9%; for `CCOC(=O)C1=C(COC(=O)[C@@H](NC(=O)c2cccc(C)c2)C(C)C)NC(=O)NC1C` (stereo partly drawn): inactive: 22.8%; for `O=C(CSc1nc2ccccc2n1Cc1ccc(Cl)cc1)N/N=C/c1ccccc1C(=O)O`: inactive: -1.74%. With `Cc1cc(NC(=O)COc2ccccc2C(N)=O)no1` the figure was inactive: -6.48%.

Regarding `COc1ccc(NC(=O)c2cc(C3CCCCN3C(=O)Cc3ccc(N(C)C)cc3)on2)c(C)c1` (stereo not drawn), the “growth rescue (activation)” value is inactive: -5.78%.

Turning to `Cc1nc(NC(=O)c2ccc([N+](=O)[O-])cc2Cl)sc1C(=O)N(C)C`, the “growth rescue (activation)” value is inactive: 14%. The same measure for `Cc1ccc2cc(C3CC(c4ccco4)=NN3C(=O)CCC(=O)O)c(Cl)nc2c1` (stereo not drawn): inactive: 8.63%; for `Cc1coc2c1c(C)cc1oc(=O)c(CC(=O)NCC(=O)NCC(=O)O)c(C)c12`: inactive: -22%. With `COCc1ccc(CN2CCCC(CCC(=O)NCc3cccc(OC)c3)C2)o1` (stereo not drawn) the figure was inactive: 1.84%. With `CCOc1ccc(CN(C)C(=O)NNC(=O)c2ccc(C)cc2)cc1OC` the figure was inactive: -0.672%; with `CCN(CC)CCN(Cc1cc2cc(C)ccc2[nH]c1=O)C(=S)NCc1ccco1`, inactive: -3.44%; with `CC1CCCN(CCOCCOc2ccc(Br)cc2Cl)C1` (stereo not drawn), inactive: -16.4%.

As to `CC1(C)N([O-])C2=C(c3ccccc3C2=O)[N+](=O)C1(C)C`, the “growth rescue (activation)” value was inactive: -25%. With `Cn1cc(-c2ccccc2)cc(C#N)c1=O` the figure was inactive: -8.07%.

As to `CCOC(=O)NC(=O)CSc1nc2ccc(C)cc2[nH]1`, the “growth rescue (activation)” value was inactive: 10.8%. Consider `CNc1cccc(-c2cccc(C(=O)N3CCOCC3)c2)n1`, for which the “growth rescue (activation)” value was inactive: 1.44%. The same measure for `CN(C)c1ccc(Nc2c3c4c(cccc4n(C)c2=O)C(=O)c2ccccc2-3)cc1`: inactive: -4.72%.

Regarding `O=C(COC(=O)c1ccccc1O)Nc1cccnc1Cl`, the “growth rescue (activation)” value is inactive: 6.15%. With `COc1cc(NC(=O)COc2ccc(Cl)cc2)ccc1-c1cc2ccccc2oc1=O` the figure was inactive: -2.82%; with `O=C(NC1CC2CCCC(C1)N2C(=O)Nc1ccccc1)c1ccccc1` (stereo not drawn), inactive: 5.36%; with `O=C(CSc1ccccn1)Nc1nc2ccccc2s1`, inactive: 11.1%. The same measure for `CCOC(=O)C(C)(C)N(Cc1ccc(C)cc1)S(=O)(=O)c1ccc(Cl)c([N+](=O)[O-])c1`: inactive: 14.2%.

On to `COC(=O)c1ccc(CNC(=O)c2cc3ccccc3oc2=O)cc1`, for which the “growth rescue (activation)” value was inactive: 2.74%. As to `C#CCSc1nnc(-c2ccc(O)cc2)o1`, the “growth rescue (activation)” value was inactive: 4.83%. For the compound `COc1ccc(C(=O)Nc2cc(Cl)ccc2C(=O)O)cc1`, the “growth rescue (activation)” value is inactive: -0.888%. With `CCOc1ccccc1NC(=O)N1CCc2cc(S(=O)(=O)N3CCC(C)CC3)ccc21` the figure was inactive: -4.43%.

For `Cc1cccc(S(=O)(=O)NC(=O)C2(C)CCN2C(=O)Cc2cc(F)ccc2F)c1` (stereo not drawn), the “growth rescue (activation)” value is inactive: -15.7%.
